The record followed here is the supplement of paper PMC10986608.

SMILES strings stand for the structures. Some of the results follow. Most values come without repeats; read them as rough.

This assay concerns Candida albicans DPL-15. Description: growth (OD600) after compound treatment (apparently relative to screen median) (relative growth (fraction; screen median 1.02)); DPL-15 is a caspofungin-resistant clinical isolate; higher = more fungal growth (less antifungal activity). The settings on record: 25 µM; RPMI 1640; 48 h; 30 °C.
Turning to `COC(=O)C1=C(C)N(CCc2cccs2)C(=S)NC1c1ccccc1` (configuration not stated), the growth came to 1.06.

Consider `COc1cc(O)c2c(=O)c3c(CC=C(C)C)cc(OC)c(O)c3oc2c1`, for which the growth stood at 1.04.

As for `CC(C)(C)NS(=O)(=O)OCCCCC1CCCCC1`, the growth was 1.07.

Turning to `COc1ccc(N2C(=O)c3[nH]nc(CC(C)C)c3C2c2cnccc2OC)cc1` (configuration not stated), the growth stood at 0.964.

As for `COC(=O)C1=C(C)N(Cc2ccc(F)cc2)C(=S)NC1c1cccc(Cl)c1` (configuration not stated), the growth is 0.927.

On to `COc1ccc([C@@H]2[C@@H](C(=O)NC3CCCC3)[C@H](C(=O)NC3CCCC3)[C@H]2c2ccc(OC)c(OC)c2OC)c(OC)c1OC`, for which the growth worked out at 1.11.

Take `COC(=O)C/C=C/[C@H](C)[C@@H](NC(=O)[C@H](Cc1c[nH]c2ccccc12)NC(=O)OC(C)(C)C)c1ccccc1`: the growth was found to be 1.11.

Take `O=c1c(O)c(-c2ccc(N3CCOCC3)cc2)[nH]c2cccc(F)c12`: the growth is active: 0.0822.

As for `CC1(C)CNC(=O)CC2(CCCCC2)CNC(=O)c2cccc(c2)-c2cc(n[nH]2)C1`, the growth was found to be 1.1.

Turning to `CC(=O)OC1(C)C(=O)C=C2C=C(/C=C/C(=O)OC(C)(C)C)OC=C2C1=O` (configuration not stated), the growth was found to be 1.14.

Consider `CC(C)(C)c1ccc(C#C[C@@H]2C=C[C@@H](O)[C@@H](COC(=O)Nc3ccccc3)O2)cc1`, for which the growth is 1.08.

On to `CC(=O)OCC(CO)N1C(=O)c2[nH]nc(CC(C)C)c2C1c1ccc(F)cc1` (configuration not stated), for which the growth turned out to be 0.882.

Turning to `CCCCCCNS(=O)(=O)NC(C)(C)C`, the growth turned out to be 1.18.

With `CNc1ccc(-c2ccc(F)cc2)cc1N`, the growth was 1.04.

In the case of `COc1cccc(CN(C)C[C@H]2CCCN(CCc3ccccc3C)C2)c1`, the growth amounted to 0.997.

`COC(=O)NC(C(=O)OC)(C(=O)OC)c1ccccc1`: the growth amounted to 1.

With `COc1cccc(Oc2ccccc2C(=O)O)c1OCc1ccccc1`, the growth amounted to 1.13.

`CC#CCN1C(=O)NC(c2ccccc2)C(C#N)=C1C` (configuration not stated): the growth came to 0.984.

For the compound `CCCCOS(=O)(=O)NC(C)(C)C`, the growth amounted to 1.13.

On to `C[C@@H](O)Cn1nc2cc1-c1cccc(c1)C(=O)NCC1(CCCCC1)CC(=O)N[C@@H](c1ccccc1)COC2`, for which the growth was 1.17.

With `CC(=O)OC[C@H]1O[C@H](c2cccc(C(C)=O)c2)C=C[C@@H]1OC(C)=O`, the growth was found to be 0.934.

As for `COC(=O)C1=C(C)N(Cc2ccc(C(F)(F)F)cc2)C(NCC2CC2)=NC1c1ccccc1` (configuration not stated), the growth came out at 1.11.

With `CC(C)Cc1nn(-c2ccc(OC(F)(F)F)cc2)c2c1C(c1ccc(Br)cc1)NC2=O` (configuration not stated), the growth came out at 1.14.

Turning to `CO[C@@H]1[C@H](O)CC[C@]2(O)CN(c3ccc(C)c(O)c3)[C@](C)([C@H](O)CC=C(C)C)[C@@H]12`, the growth is 0.973.

For `COC(=O)C1=C(C)N(Cc2cccc(F)c2)C(=S)NC1c1cccc(Cl)c1` (configuration not stated), the growth stood at 0.873.

Consider `CO[C@@H]1CCN(C(=O)c2c(O)cc(O)cc2Nc2cnn(C(C)C)c2)C1`, for which the growth was 1.02.

For `CCO[C@H]1CCN(C(=O)c2c(O)cc(O)cc2Nc2c(C)nn(C)c2C)C1`, the growth turned out to be 1.01.

As for `CC(C)CC1=NCC(C)(C)NC2=C1C(c1cccc(C(F)(F)F)c1)N(Cc1ccccc1)C2=O` (configuration not stated), the growth stood at 1.04.

For the compound `COc1ccc(C[C@@H]2COC[C@@H]2Cc2ccc3c(c2)OCO3)cc1OC`, the growth amounted to 0.936.

With `CC(C)Cc1n[nH]c2c1C(c1ccsc1)N(c1ccc3c(c1)OCO3)C2=O` (configuration not stated), the growth was determined as 0.974.

Take `Cc1nn(-c2ccc(F)cc2)c2c1C(c1cccc(C(F)(F)F)c1)NC2=O` (configuration not stated): the growth worked out at 0.766.

Turning to `O=C(NCCn1ccnc1)c1nnc(-c2ccccc2)c(-c2ccccc2)n1`, the growth is 1.05.

Turning to `COc1cc(Br)c(C(=O)N2Cc3ccccc3C2)c(OC)c1`, the growth stood at 0.902.

For `COC(=O)N1C2=C(c3ccccc3[C@@H]1CC(=O)O)[C@H]1O[C@@H](C2)c2ccccc21`, the growth was 1.13.

Take `COC(=O)C/C=C/[C@@H](C)[C@H](NC(=O)OCC(Cl)(Cl)Cl)c1ccc2ccccc2c1`: the growth is 0.952.

As for `COc1ccc([C@]23[C@H](c4ccccc4)C[C@@H](O)[C@@]2(O)c2c(OC)cccc2N3C)cc1`, the growth stood at 1.19.

As to `COC(=O)C1=C(C)N(Cc2ccc(Cl)cc2)C(=S)NC1c1ccccc1F` (configuration not stated), the growth was 0.854.

Regarding `CO[C@H]1CCN(C(=O)c2c(O)cc(O)cc2Nc2cnn(CCN(C)C)c2)C1`, the growth came out at 1.11.

`COc1cc(F)cc2c1[C@]1(O)[C@H](O)[C@@H](C#N)[C@H](c3ccccc3)[C@]1(c1ccc(Br)cc1)O2`: the growth was 1.06.

For the compound `CC1=Nc2ccccc2[C@@]1(C)Cc1occc(=O)c1OS(C)(=O)=O`, the growth was 1.26.

`CCNC(=O)[C@H]1[C@H](C(=O)NCC)[C@@H](c2ccc(O)c(OC)c2)[C@@H]1c1ccc(O)c(OC)c1`: the growth turned out to be 1.03.

Turning to `Nc1ccccc1C(=O)/C=C/c1ccccc1`, the growth was 0.711.

Turning to `COc1ccc(N2C(=O)c3[nH]nc(CC(C)C)c3C2c2ccc(Cl)cc2)cc1` (configuration not stated), the growth came out at 1.16.

`COc1cccc(Oc2cccc(F)c2C(=O)O)c1OCc1ccccc1`: the growth turned out to be 1.03.

Turning to `Cc1cc(O)c2c(c1)OC1(C)C(=O)C=CC(O)=C1C2=O` (configuration not stated), the growth amounted to 1.13.

On to `CCN1C(=O)N[C@@H](c2cccc(F)c2)C(C(C)=O)=C1C`, for which the growth was determined as 0.983.

Turning to `CNc1cccc(F)c1C(=O)OCC(=O)c1ccc(C#N)cc1`, the growth was 0.967.

Turning to `C=C1CC[C@H]2[C@H](C(=O)C(C)C)C3=C(O[C@]2(C)CC[C@@H]2[C@@H]1CC2(C)C)C(C)(C)C(=O)C(C)(C)C3=O`, the growth is 0.901.

With `CC(C)C(=O)O[C@@H]1c2c(c3c([c-]2[N+]#N)C(=O)c2c(O)cccc2C3=O)C(=O)[C@@H]2O[C@]12C`, the growth came to 0.603.

Take `COC(=O)[C@@H]1[C@@H](c2ccccc2)[C@]2(c3ccc(OC)cc3)Oc3cc(OC)cc(OC)c3[C@@]1(O)C2(O)O`: the growth turned out to be 1.02.

Consider `N#Cc1ccc(S(=O)(=O)N2CCCc3nc(-c4ccc(F)cc4)ccc32)cc1`, for which the growth came out at 0.962.

With `C=CC(=O)OC[C@H]1O[C@H](C#Cc2ccc(C(C)(C)C)cc2)C=C[C@H]1OC(=O)C=C`, the growth stood at 0.984.

For the compound `CCO[C@@H]1CCN(C(=O)c2c(O)cc(O)cc2Nc2cnn(C)c2)C1`, the growth is 1.08.

`Cn1nc(-c2cccc(C(F)(F)F)c2)cc1N`: the growth worked out at 1.32.

With `COc1cccc(N2C(=O)c3[nH]nc(CC(C)C)c3C2c2ccc(F)cc2)c1` (configuration not stated), the growth was 1.02.

On to `CCOC(=O)CN1CCCc2nc(CC)c(CC)cc21`, for which the growth is 0.89.

In the case of `COc1ccc(N2C(=O)c3c(c(C(C)C)nn3C)C2c2cccc(C(F)(F)F)c2)cc1` (configuration not stated), the growth came out at 0.999.

Turning to `COc1ccc2c(c1)C(=O)[C@@H](OC(=O)NS(=O)(=O)c1ccc(F)cc1)[C@H](c1ccc(OC)c(Br)c1)O2`, the growth is 0.407.

On to `CC1=C[C@]2(O[C@H](COc3ccccc3)C1)C(=O)N(C)c1ccccc12`, for which the growth came to 0.941.

`O=C(c1ccccc1)N1CCc2c(cc(-c3ccccc3)c(-c3ccccc3)[n+]2[O-])C1`: the growth was found to be 1.09.

With `CCc1cc2c(nc1CC)CCCN2S(=O)(=O)c1ccc(OC)cc1`, the growth is 0.904.

As to `CC(C)C1=NCC(C)(C)NC2=C1C(c1ccc3c(c1)OCO3)N(c1ccccc1)C2=O` (configuration not stated), the growth amounted to 1.06.

As to `COc1ccc([C@@H]2[C@@H](C(=O)Nc3ccccc3)[C@@H](C(=O)Nc3ccccc3)[C@@H]2c2ccc(OC)c(OC)c2)cc1OC`, the growth is 1.01.

As for `COC[C@@H]1Cc2cc(OC)c(OC)cc2[C@H](c2ccc3c(c2)OCO3)[C@H]1COC`, the growth worked out at 1.15.

With `COc1ccc(N2C(=O)c3[nH]nc(CC(C)C)c3C2c2ccc(F)cc2)c(OC)c1` (configuration not stated), the growth amounted to 1.15.

`COC[C@@H](O)[C@H]1OCc2cc(OC)ccc2[C@@H]1/C=C/c1ccccc1`: the growth worked out at 1.09.

As to `COC(=O)[C@H]1[C@@H](O)[C@@]2(O)c3c(OC)cc(OS(=O)(=O)c4ccc(C)cc4)cc3O[C@@]2(c2ccc(Br)cc2)[C@@H]1c1ccccc1`, the growth turned out to be 1.11.

With `COc1ccc(OC[C@@H]2C=C(C)C[C@]3(O2)C(=O)Nc2ccc(OC)cc23)cc1`, the growth was 0.868.

`COC(=O)C/C=C/[C@H](C)[C@@H](NC(=O)[C@@H](C)NC(=O)OC(C)(C)C)c1ccccc1`: the growth amounted to 1.08.

With `CCc1ccccc1-n1nc2c(c1CC(C)C)C(c1ccc(C)cc1)NC2=O` (configuration not stated), the growth amounted to 0.839.

Take `Cc1ccc(S(=O)(=O)N/N=C/c2cccc(C(=O)NCC3(CC(=O)NCCCC#CCO)CCCCC3)c2)cc1`: the growth is 1.07.

Take `COC(=O)CC#C[C@H](C)[C@@H](NS(C)(=O)=O)C(C)(C)COCc1ccccc1`: the growth worked out at 1.03.

Regarding `CC1=NCC(C)(C)NC2=C1C(c1ccccc1)NC2=O` (configuration not stated), the growth worked out at 0.892.

Consider `COc1cc(OC)c2c(OC)c3c(=O)cc(C)oc3cc2c1OC`, for which the growth turned out to be 0.999.

In the case of `CCN(CC)C(=O)c1c(O)cc(O)cc1CC(=O)C1CCCCC1`, the growth was 1.12.

In the case of `Cc1ccc(C2NC(=O)c3nn(Cc4ccccc4)c(-c4ccccc4)c32)cc1` (configuration not stated), the growth worked out at 0.884.

As to `CO[C@@H]1[C@H](O)CC[C@]2(O)CN(C3CCCC3)[C@@H](CC=C(C)C)[C@](C)(O)[C@@H]12`, the growth worked out at 1.09.

On to `COc1ccc(N2C(=O)c3[nH]nc(CC(C)C)c3C2c2cccc(C(F)(F)F)c2)cc1F` (configuration not stated), for which the growth turned out to be 1.06.

With `COC(=O)C1=C(C)N(Cc2ccc(C(F)(F)F)cc2)C(=S)NC1c1cccc(Br)c1` (configuration not stated), the growth amounted to 0.902.

Take `CS(=O)(=O)Oc1c(CC23CCCCC2=Nc2c(F)cccc23)occc1=O` (configuration not stated): the growth amounted to 1.02.

In the case of `COC(=O)C1=C(C)N(CCCOC(C)C)C(=S)NC1c1ccc(OC)cc1` (configuration not stated), the growth stood at 1.02.

Consider `COc1ccc2c(c1)[C@@H](NCCCOc1ccccc1)[C@H](C)[C@H]2c1ccccc1`, for which the growth turned out to be 0.94.
